The supplement of paper PMC8728848
The list shows a part of the results.

Assays:
Assay in all cases: glycan array binding signal (z-score within array); higher = stronger binding
Details in all cases: glycan notation: IUPAC condensed, linker removed
[1] = molecular target: Fuc(a1-2)Gal6S(b1-3)GlcNAc
Summary of the method: (§1)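 Arrays were curated from the Consortium for Functional Glycomics database, 3228 in total, and kept only where the protein sequence was available. Binding is expressed as a within-array Z-score. This score was averaged across arrays of the same protein sequence at different concentrations or buffers and across linkers, and negative values can be read as non-binding.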

[2] = molecular target: Fuc(a1-2)Gal6S(b1-3)GlcNAc6S
Summary of the method: as §1

[3] = molecular target: Fuc(a1-2)Gal6S(b1-4)Glc
Summary of the method: as §1

[4] = molecular target: Fuc(a1-2)Gal6S(b1-4)Glc6S
Summary of the method: as §1

[5] = molecular target: Fuc(a1-2)[Gal(a1-3)]Gal
Summary of the method: as §1

[6] = molecular target: Fuc(a1-2)[Gal(a1-3)]Gal(b1-3)GalNAc
Summary of the method: as §1

[7] = molecular target: Fuc(a1-2)[Gal(a1-3)]Gal(b1-3)GalNAc(b1-3)Gal(a1-4)Gal(b1-4)Glc
Summary of the method: as §1

[8] = molecular target: Fuc(a1-2)[Gal(a1-3)]Gal(b1-3)GlcNAc
Summary of the method: as §1

[9] = molecular target: Fuc(a1-2)[Gal(a1-3)]Gal(b1-3)GlcNAc(b1-2)Man(a1-3)[Fuc(a1-2)[Gal(a1-3)]Gal(b1-3)GlcNAc(b1-2)Man(a1-6)]Man(b1-4)GlcNAc(b1-4)GlcNAc
Summary of the method: as §1

[10] = molecular target: Fuc(a1-2)[Gal(a1-3)]Gal(b1-3)GlcNAc(b1-2)Man(a1-3)[Fuc(a1-2)[Gal(a1-3)]Gal(b1-3)GlcNAc(b1-2)Man(a1-6)]Man(b1-4)GlcNAc(b1-4)[Fuc(a1-6)]GlcNAc
Summary of the method: as §1

[11] = molecular target: Fuc(a1-2)[Gal(a1-3)]Gal(b1-3)GlcNAc(b1-3)GalNAc
Summary of the method: as §1

[12] = molecular target: Fuc(a1-2)[Gal(a1-3)]Gal(b1-3)GlcNAc(b1-6)GalNAc
Summary of the method: as §1

[13] = molecular target: Fuc(a1-2)[Gal(a1-3)]Gal(b1-4)Glc
Summary of the method: as §1

[14] = molecular target: Fuc(a1-2)[Gal(a1-3)]Gal(b1-4)GlcNAc
Summary of the method: as §1

[15] = molecular target: Fuc(a1-2)[Gal(a1-3)]Gal(b1-4)GlcNAc(b1-2)Man
Summary of the method: as §1

[16] = molecular target: Fuc(a1-2)[Gal(a1-3)]Gal(b1-4)GlcNAc(b1-2)Man(a1-3)[Fuc(a1-2)[Gal(a1-3)]Gal(b1-4)GlcNAc(b1-2)Man(a1-6)]Man(b1-4)GlcNAc(b1-4)GlcNAc
Summary of the method: as §1

[17] = molecular target: Fuc(a1-2)[Gal(a1-3)]Gal(b1-4)GlcNAc(b1-2)Man(a1-3)[Fuc(a1-2)[Gal(a1-3)]Gal(b1-4)GlcNAc(b1-2)Man(a1-6)]Man(b1-4)GlcNAc(b1-4)[Fuc(a1-6)]GlcNAc
Summary of the method: as §1

[18] = molecular target: Fuc(a1-2)[Gal(a1-3)]Gal(b1-4)GlcNAc(b1-3)GalNAc
Summary of the method: as §1

[19] = molecular target: Fuc(a1-2)[Gal(a1-3)]Gal(b1-4)GlcNAc(b1-3)[Fuc(a1-2)[Gal(a1-3)]Gal(b1-4)GlcNAc(b1-6)]GalNAc
Summary of the method: as §1

[20] = molecular target: Fuc(a1-2)[Gal(a1-3)]Gal(b1-4)GlcNAc(b1-6)GalNAc
Summary of the method: as §1

[21] = molecular target: Fuc(a1-2)[Gal(a1-3)]Gal(b1-4)[Fuc(a1-3)]Glc
Summary of the method: as §1

[22] = molecular target: Fuc(a1-2)[Gal(a1-3)]Gal(b1-4)[Fuc(a1-3)]GlcNAc
Summary of the method: as §1

[23] = molecular target: Fuc(a1-2)[Gal(a1-3)]Gal(b1-4)[Fuc(a1-3)]GlcNAc(b1-3)GalNAc
Summary of the method: as §1

[24] = molecular target: Fuc(a1-2)[Gal(a1-4)]Gal(b1-4)GlcNAc
Summary of the method: as §1

[25] = molecular target: Fuc(a1-2)[GalNAc(a1-3)]Gal
Summary of the method: as §1

[26] = molecular target: Fuc(a1-2)[GalNAc(a1-3)]Gal(b1-3)GalNAc(a1-3)[Fuc(a1-2)]Gal(b1-4)GlcNAc
Summary of the method: as §1

[27] = molecular target: Fuc(a1-2)[GalNAc(a1-3)]Gal(b1-3)GalNAc(b1-3)Gal(a1-4)Gal(b1-4)Glc
Summary of the method: as §1

[28] = molecular target: Fuc(a1-2)[GalNAc(a1-3)]Gal(b1-3)GlcNAc
Summary of the method: as §1

[29] = molecular target: Fuc(a1-2)[GalNAc(a1-3)]Gal(b1-3)GlcNAc(b1-2)Man(a1-3)[Fuc(a1-2)[GalNAc(a1-3)]Gal(b1-3)GlcNAc(b1-2)Man(a1-6)]Man(b1-4)GlcNAc(b1-4)GlcNAc
Summary of the method: as §1

[30] = molecular target: Fuc(a1-2)[GalNAc(a1-3)]Gal(b1-3)GlcNAc(b1-2)Man(a1-3)[Fuc(a1-2)[GalNAc(a1-3)]Gal(b1-3)GlcNAc(b1-2)Man(a1-6)]Man(b1-4)GlcNAc(b1-4)[Fuc(a1-6)]GlcNAc
Summary of the method: as §1

[31] = molecular target: Fuc(a1-2)[GalNAc(a1-3)]Gal(b1-3)GlcNAc(b1-3)GalNAc
Summary of the method: as §1

[32] = molecular target: Fuc(a1-2)[GalNAc(a1-3)]Gal(b1-3)GlcNAc(b1-6)GalNAc
Summary of the method: as §1

[33] = molecular target: Fuc(a1-2)[GalNAc(a1-3)]Gal(b1-4)Glc
Summary of the method: as §1

[34] = molecular target: Fuc(a1-2)[GalNAc(a1-3)]Gal(b1-4)GlcNAc
Summary of the method: as §1

[35] = molecular target: Fuc(a1-2)[GalNAc(a1-3)]Gal(b1-4)GlcNAc(b1-2)Man
Summary of the method: as §1

[36] = molecular target: Fuc(a1-2)[GalNAc(a1-3)]Gal(b1-4)GlcNAc(b1-2)Man(a1-3)[Fuc(a1-2)[GalNAc(a1-3)]Gal(b1-4)GlcNAc(b1-2)Man(a1-6)]Man(b1-4)GlcNAc(b1-4)GlcNAc
Summary of the method: as §1

[37] = molecular target: Fuc(a1-2)[GalNAc(a1-3)]Gal(b1-4)GlcNAc(b1-2)Man(a1-3)[Fuc(a1-2)[GalNAc(a1-3)]Gal(b1-4)GlcNAc(b1-2)Man(a1-6)]Man(b1-4)GlcNAc(b1-4)[Fuc(a1-6)]GlcNAc
Summary of the method: as §1

[38] = molecular target: Fuc(a1-2)[GalNAc(a1-3)]Gal(b1-4)GlcNAc(b1-3)Gal(b1-4)GlcNAc
Summary of the method: as §1

[39] = molecular target: Fuc(a1-2)[GalNAc(a1-3)]Gal(b1-4)GlcNAc(b1-3)Gal(b1-4)GlcNAc(b1-3)Gal(b1-4)GlcNAc
Summary of the method: as §1

[40] = molecular target: Fuc(a1-2)[GalNAc(a1-3)]Gal(b1-4)GlcNAc(b1-3)GalNAc
Summary of the method: as §1

[41] = molecular target: Fuc(a1-2)[GalNAc(a1-3)]Gal(b1-4)GlcNAc(b1-3)[Fuc(a1-2)[GalNAc(a1-3)]Gal(b1-4)GlcNAc(b1-6)]GalNAc
Summary of the method: as §1

[42] = molecular target: Fuc(a1-2)[GalNAc(a1-3)]Gal(b1-4)GlcNAc(b1-6)GalNAc
Summary of the method: as §1

[43] = molecular target: Fuc(a1-2)[GalNAc(a1-3)]Gal(b1-4)[Fuc(a1-3)]GlcNAc
Summary of the method: as §1

[44] = molecular target: Fuc(a1-2)[GalNAc(a1-3)]Gal(b1-4)[Fuc(a1-3)]GlcNAc(b1-3)GalNAc
Summary of the method: as §1

[45] = molecular target: Fuc(a1-2)[GalNAc(a1-4)]Gal(b1-4)GlcNAc
Summary of the method: as §1

B1: CpGal16 (Clavelina picta) (protein)
chain: MAKMITNYVGKRIECIMVATDMMSTVFSLASATGDLPFYINFRQRENSIVMNTRVHGKWQYEKSQSSGGMNFYEPFRLVVEVRPSVFKVTVSTMGEEDGITFNLQYSQITIKPDEIVAMHLGYCNLRSELLVTDL
Question: Which results are given for B1?
Answer: glycan array binding signal (z-score) [1]: -0.361; glycan array binding signal (z-score) [2]: -0.123; glycan array binding signal (z-score) [3]: -0.262; glycan array binding signal (z-score) [4]: -0.286; glycan array binding signal (z-score) [5]: -0.008; glycan array binding signal (z-score) [6]: -0.389; glycan array binding signal (z-score) [7]: -0.457; glycan array binding signal (z-score) [8]: 2.39; glycan array binding signal (z-score) [9]: 1.27; glycan array binding signal (z-score) [10]: -0.205; glycan array binding signal (z-score) [11]: 0.655; glycan array binding signal (z-score) [12]: 2.33; glycan array binding signal (z-score) [13]: 1.97; glycan array binding signal (z-score) [14]: -0.113; glycan array binding signal (z-score) [15]: 0.058; glycan array binding signal (z-score) [16]: 1.85; glycan array binding signal (z-score) [17]: -0.069; glycan array binding signal (z-score) [18]: -0.096; glycan array binding signal (z-score) [19]: 0.604; glycan array binding signal (z-score) [20]: -0.347; glycan array binding signal (z-score) [21]: -0.318; glycan array binding signal (z-score) [22]: -0.434; glycan array binding signal (z-score) [23]: -0.193; glycan array binding signal (z-score) [24]: -0.132; glycan array binding signal (z-score) [25]: -0.442; glycan array binding signal (z-score) [26]: -0.137; glycan array binding signal (z-score) [27]: -0.18; glycan array binding signal (z-score) [28]: 2.33; glycan array binding signal (z-score) [29]: 2.19; glycan array binding signal (z-score) [30]: -0.04; glycan array binding signal (z-score) [31]: 0.761; glycan array binding signal (z-score) [32]: 3.13; glycan array binding signal (z-score) [33]: 2.27; glycan array binding signal (z-score) [34]: 1.19; glycan array binding signal (z-score) [35]: 2.31; glycan array binding signal (z-score) [36]: 2.46; glycan array binding signal (z-score) [37]: 0.044; glycan array binding signal (z-score) [38]: 2.86; glycan array binding signal (z-score) [39]: 1.88; glycan array binding signal (z-score) [40]: 0.86; glycan array binding signal (z-score) [41]: 0.96; glycan array binding signal (z-score) [42]: 0.062; glycan array binding signal (z-score) [43]: -0.203; glycan array binding signal (z-score) [44]: 1.83; glycan array binding signal (z-score) [45]: -0.452
